# According to the supplement of paper PMC8728848:
# The list shows a part of the results.
# B1: MGL (Homo sapiens), Q8IUN9 (protein)
# chain: MTRTYENFQYLENKVKVQGFKNGPLPLQSLLQRLCSGPCHLLLSLGLGLLLLVIICVVGFQNSKFQRDLVTLRTDFSNFTSNTVAEIQALTSQGSSLEETIASLKAEVEGFKQERQAGVSELQEHTTQKAHLGHCPHCPSVCVPVHSEMLLRVQQLVQDLKKLTCQVATLNNNASTEGTCCPVNWVEHQDSCYWFSHSGMSWAEAEKYCQLKNAHLVVINSREEQNFVQKYLGSAYTWMGLSDPEGAWKWVDGTDYATGFQNWKPGQPDDWQGHGLGGGEDCAHFHPDGRWNDDVCQRPYHWVCEAGLGQTSQESH
# Key:
# Experiment in all cases: glycan array binding signal (z-score within array); higher = stronger binding
# Details in all cases: glycan notation: IUPAC condensed, linker removed
# Fuc(a1-2)Gal = biological target: Fuc(a1-2)Gal
# Outline: (§1)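 The binding signal is a Z-score computed within each array. Data were drawn from 3228 arrays in the Consortium for Functional Glycomics database, restricted to those with a known protein sequence. Scores were averaged over arrays of the same protein sequence at different concentrations or buffers, and over linkers, and negative values can be taken as non-binding.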
# Fuc(a1-2)Gal(b1-3)GalNAc = biological target: Fuc(a1-2)Gal(b1-3)GalNAc
# Outline: as §1
# [1] = biological target: Fuc(a1-2)Gal(b1-3)GalNAc(a1-3)[Fuc(a1-2)]Gal(b1-4)Glc
# Outline: as §1
# [2] = biological target: Fuc(a1-2)Gal(b1-3)GalNAc(a1-3)[Fuc(a1-2)]Gal(b1-4)GlcNAc
# Outline: as §1
# [3] = biological target: Fuc(a1-2)Gal(b1-3)GalNAc(b1-3)Gal
# Outline: as §1
# [4] = biological target: Fuc(a1-2)Gal(b1-3)GalNAc(b1-3)Gal(a1-4)Gal(b1-4)Glc
# Outline: as §1
# [5] = biological target: Fuc(a1-2)Gal(b1-3)GalNAc(b1-4)[Neu5Ac(a2-3)]Gal(b1-4)Glc
# Outline: as §1
# Fuc(a1-2)Gal(b1-3)GlcNAc = biological target: Fuc(a1-2)Gal(b1-3)GlcNAc
# Outline: as §1
# [6] = biological target: Fuc(a1-2)Gal(b1-3)GlcNAc(b1-2)Man(a1-3)[Fuc(a1-2)Gal(b1-3)GlcNAc(b1-2)Man(a1-6)]Man(b1-4)GlcNAc(b1-4)GlcNAc
# Outline: as §1
# [7] = biological target: Fuc(a1-2)Gal(b1-3)GlcNAc(b1-2)Man(a1-3)[Fuc(a1-2)Gal(b1-3)GlcNAc(b1-2)Man(a1-6)]Man(b1-4)GlcNAc(b1-4)[Fuc(a1-6)]GlcNAc
# Outline: as §1
# [8] = biological target: Fuc(a1-2)Gal(b1-3)GlcNAc(b1-3)Gal(b1-4)Glc
# Outline: as §1
# [9] = biological target: Fuc(a1-2)Gal(b1-3)GlcNAc(b1-3)GalNAc
# Outline: as §1
# [10] = biological target: Fuc(a1-2)Gal(b1-3)GlcNAc(b1-3)[Fuc(a1-2)Gal(b1-3)GlcNAc(b1-6)]GalNAc
# Outline: as §1
# [11] = biological target: Fuc(a1-2)Gal(b1-3)GlcNAc(b1-3)[Gal(b1-4)GlcNAc(b1-6)]Gal(b1-4)Glc
# Outline: as §1
# [12] = biological target: Fuc(a1-2)Gal(b1-3)GlcNAc(b1-3)[Neu5Ac(a2-6)Gal(b1-4)GlcNAc(b1-6)]Gal(b1-4)Glc
# Outline: as §1
# [13] = biological target: Fuc(a1-2)Gal(b1-3)GlcNAc6S
# Outline: as §1
# [14] = biological target: Fuc(a1-2)Gal(b1-3)[Fuc(a1-4)]GlcNAc
# Outline: as §1
# [15] = biological target: Fuc(a1-2)Gal(b1-3)[Fuc(a1-4)]GlcNAc(b1-2)Man(a1-3)[Fuc(a1-2)Gal(b1-3)[Fuc(a1-4)]GlcNAc(b1-2)Man(a1-3)]Man(b1-4)GlcNAc(b1-4)GlcNAc
# Outline: as §1
# [16] = biological target: Fuc(a1-2)Gal(b1-3)[Fuc(a1-4)]GlcNAc(b1-2)Man(a1-3)[Fuc(a1-2)Gal(b1-3)[Fuc(a1-4)]GlcNAc(b1-2)Man(a1-6)]Man(b1-4)GlcNAc(b1-4)[Fuc(a1-6)]GlcNAc(b1-4)[Fuc(a1-6)]GlcNAc
# Outline: as §1
# [17] = biological target: Fuc(a1-2)Gal(b1-3)[Fuc(a1-4)]GlcNAc(b1-3)[Fuc(a1-3)[Gal(b1-4)]GlcNAc(b1-6)]Gal(b1-4)Glc
# Outline: as §1
# [18] = biological target: Fuc(a1-2)Gal(b1-3)[Fuc(a1-4)]GlcNAc(b1-3)[Gal(b1-4)GlcNAc(b1-6)]Gal(b1-4)Glc
# Outline: as §1
# [19] = biological target: Fuc(a1-2)Gal(b1-4)Fuc(a1-3)]GlcNAc(b1-2)Man(a1-3)[Fuc(a1-2)Gal(b1-4)[Fuc(a1-3)]GlcNAc(b1-2)Man(a1-6)]Man(b1-4)GlcNAc(b1-4)GlcNAc
# Outline: as §1
# Fuc(a1-2)Gal(b1-4)Glc = biological target: Fuc(a1-2)Gal(b1-4)Glc
# Outline: as §1
# Fuc(a1-2)Gal(b1-4)Glc6S = biological target: Fuc(a1-2)Gal(b1-4)Glc6S
# Outline: as §1
# Fuc(a1-2)Gal(b1-4)GlcNAc = biological target: Fuc(a1-2)Gal(b1-4)GlcNAc
# Outline: as §1
# [20] = biological target: Fuc(a1-2)Gal(b1-4)GlcNAc(b1-2)Man
# Outline: as §1
# [21] = biological target: Fuc(a1-2)Gal(b1-4)GlcNAc(b1-2)Man(a1-3)[Fuc(a1-2)Gal(b1-4)GlcNAc(b1-2)Man(a1-6)]Man(b1-4)GlcNAc(b1-4)GlcNAc
# Outline: as §1
# [22] = biological target: Fuc(a1-2)Gal(b1-4)GlcNAc(b1-2)Man(a1-3)[Fuc(a1-2)Gal(b1-4)GlcNAc(b1-2)Man(a1-6)]Man(b1-4)GlcNAc(b1-4)[Fuc(a1-6)]GlcNAc
# Outline: as §1
# [23] = biological target: Fuc(a1-2)Gal(b1-4)GlcNAc(b1-2)[Fuc(a1-2)Gal(b1-4)GlcNAc(b1-4)]Man(a1-3)[Fuc(a1-2)Gal(b1-4)GlcNAc(b1-2)Man(a1-6)]Man(b1-4)GlcNAc(b1-4)GlcNAc
# Outline: as §1
# [24] = biological target: Fuc(a1-2)Gal(b1-4)GlcNAc(b1-3)Gal(b1-4)GlcNAc
# Outline: as §1
# [25] = biological target: Fuc(a1-2)Gal(b1-4)GlcNAc(b1-3)Gal(b1-4)GlcNAc(b1-2)Man(a1-3)[Fuc(a1-2)Gal(b1-4)GlcNAc(b1-3)Gal(b1-4)GlcNAc(b1-2)Man(a1-6)]Man(b1-4)GlcNAc(b1-4)GlcNAc
# Outline: as §1
# [26] = biological target: Fuc(a1-2)Gal(b1-4)GlcNAc(b1-3)Gal(b1-4)GlcNAc(b1-3)Gal(b1-4)GlcNAc
# Outline: as §1
# [27] = biological target: Fuc(a1-2)Gal(b1-4)GlcNAc(b1-3)GalNAc
# Outline: as §1
# [28] = biological target: Fuc(a1-2)Gal(b1-4)GlcNAc(b1-3)[Fuc(a1-2)Gal(b1-4)GlcNAc(b1-6)]GalNAc
# Outline: as §1
# [29] = biological target: Fuc(a1-2)Gal(b1-4)GlcNAc(b1-3)[Fuc(a1-3)[Gal(b1-4)]GlcNAc(b1-6)]Gal(b1-4)Glc
# Outline: as §1
# [30] = biological target: Fuc(a1-2)Gal(b1-4)GlcNAc(b1-6)GalNAc
# Outline: as §1
# [31] = biological target: Fuc(a1-2)Gal(b1-4)GlcNAc6S
# Outline: as §1
binder,measurement,setting,value
B1,glycan array binding signal (z-score),Fuc(a1-2)Gal,-0.232
same,glycan array binding signal (z-score),Fuc(a1-2)Gal(b1-3)GalNAc,-0.248
same,glycan array binding signal (z-score),[1],-0.246
same,glycan array binding signal (z-score),[2],-0.24
same,glycan array binding signal (z-score),[3],-0.223
same,glycan array binding signal (z-score),[4],-0.242
same,glycan array binding signal (z-score),[5],-0.044
same,glycan array binding signal (z-score),Fuc(a1-2)Gal(b1-3)GlcNAc,-0.251
same,glycan array binding signal (z-score),[6],-0.224
same,glycan array binding signal (z-score),[7],-0.222
same,glycan array binding signal (z-score),[8],-0.251
same,glycan array binding signal (z-score),[9],-0.248
same,glycan array binding signal (z-score),[10],-0.239
same,glycan array binding signal (z-score),[11],-0.248
same,glycan array binding signal (z-score),[12],-0.245
same,glycan array binding signal (z-score),[13],-0.178
same,glycan array binding signal (z-score),[14],-0.244
same,glycan array binding signal (z-score),[15],-0.234
same,glycan array binding signal (z-score),[16],-0.238
same,glycan array binding signal (z-score),[17],-0.245
same,glycan array binding signal (z-score),[18],-0.242
same,glycan array binding signal (z-score),[19],-0.219
same,glycan array binding signal (z-score),Fuc(a1-2)Gal(b1-4)Glc,-0.231
same,glycan array binding signal (z-score),Fuc(a1-2)Gal(b1-4)Glc6S,-0.246
same,glycan array binding signal (z-score),Fuc(a1-2)Gal(b1-4)GlcNAc,-0.247
same,glycan array binding signal (z-score),[20],-0.246
same,glycan array binding signal (z-score),[21],-0.229
same,glycan array binding signal (z-score),[22],-0.209
same,glycan array binding signal (z-score),[23],-0.281
same,glycan array binding signal (z-score),[24],-0.247
same,glycan array binding signal (z-score),[25],-0.238
same,glycan array binding signal (z-score),[26],-0.24
same,glycan array binding signal (z-score),[27],-0.249
same,glycan array binding signal (z-score),[28],-0.212
same,glycan array binding signal (z-score),[29],-0.237
same,glycan array binding signal (z-score),[30],3.85
same,glycan array binding signal (z-score),[31],-0.256
